# According to PubChem BioAssay (Tox21):
# Where “and” joins values, the source holds several entries; their conditions need not be identical. Identical values can stand only once. The inconclusive results got no clear call from the source; some entries with a clear call stand among them for comparison. For some assays here: Potencies of inconclusive entries are left out as doubtful fits. Calls of active or inactive are those of the source. Unless noted, calls follow the shape of the dose curve; as a rule, active = well fitted curve in the direction sought with a large enough effect in the repeat runs; inconclusive = weak or mixed curves; inactive = no such curve, though single readings can be large; an effect the other way counts as inactive or inconclusive.
# Experiments:
# [1] = molecular target: Peroxisome proliferator-activated receptor gamma (Homo sapiens) (UniProt P37231); assay: qHTS assay to identify small molecule antagonists of the peroxisome proliferator-activated receptor gamma (PPARg) signaling pathway (AID 743191; calls by dose curve; also: nearly all actives have a fitted effect of over 30% in size; also: potency is read from the fitted curve at half-maximal effect; as to ratio activity, negative = inhibition: % is scaled to controls: 0 for no effect and ±100 for the full control effect); settings: HEK293H PPARg-UAS-bla, beta-lactamase ratio, antagonist, 17 h; ratio activity, negative = inhibition: at 62.6 µM (top of the series) unless noted
# UniProt P37231, sequence (P37231 whole entry, looked up): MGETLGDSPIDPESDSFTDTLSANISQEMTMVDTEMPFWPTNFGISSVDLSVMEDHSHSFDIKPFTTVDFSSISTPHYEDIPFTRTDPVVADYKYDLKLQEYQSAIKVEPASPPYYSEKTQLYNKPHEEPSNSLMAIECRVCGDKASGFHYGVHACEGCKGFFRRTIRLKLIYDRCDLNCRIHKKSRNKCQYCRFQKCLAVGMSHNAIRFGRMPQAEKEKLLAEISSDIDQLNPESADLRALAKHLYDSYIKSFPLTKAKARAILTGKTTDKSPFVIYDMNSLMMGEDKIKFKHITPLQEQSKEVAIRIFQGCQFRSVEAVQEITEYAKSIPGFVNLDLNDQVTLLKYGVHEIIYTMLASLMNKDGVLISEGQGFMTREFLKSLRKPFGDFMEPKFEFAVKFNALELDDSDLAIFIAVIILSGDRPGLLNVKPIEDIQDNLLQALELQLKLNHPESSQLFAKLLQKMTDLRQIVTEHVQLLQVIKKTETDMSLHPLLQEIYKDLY
# Outline: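 Beta-lactamase reporter under UAS control in HEK293H PPARg-bla cells; compound treatment 17 h at 37C. Read-out: fluorescence intensity after 1 h room-temperature incubation with LiveBLAzer B/G FRET substrate.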
# [2] = qHTS assay for small molecule agonists of the antioxidant response element (ARE) signaling pathway (AID 743202; active = well fitted activation curve with a large enough effect in the signal ratio in the repeat runs, not every such curve was filed as active; inconclusive = weak or mixed curves, or effect the other way; inactive = no such curve, though single readings can be large or run the other way; the % refers to the signal ratio; also: potency is read from the fitted curve at half-maximal effect; as to activation: % is scaled to controls: 0 for no effect and ±100 for the full control effect); settings: HepG2 ARE-bla reporter, beta-lactamase FRET, 16 h; activation: at 73.3 µM (top of the series) unless noted
# Outline: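 Quantitative high-throughput format in HepG2 cells bearing an integrated ARE-beta-lactamase reporter. Compound exposure lasted 16 h at 37 C, and fluorescence was read 2 h after adding LiveBLAzer B/G substrate at room temperature.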
# [3] = qHTS assay for small molecule activators of the heat shock response signaling pathway (AID 743210; active = well fitted activation curve with a large enough effect in the signal ratio in the repeat runs, with a control signal flat, not every such curve was filed as active; inconclusive = weak or mixed curves; the % refers to the signal ratio; also: potency is read from the fitted curve at half-maximal effect); settings: HeLa HSE-bla reporter, beta-lactamase ratio, 5 h; activation: at 62.6 µM (top of the series) unless noted
# Outline: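 HeLa HSE-bla cells, overnight plating; cpd in DMSO 5 h, 37 C; LiveBLAzer B/G FRET substrate 2.5 h RT; fluorescence intensity read.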
# [4] = qHTS assay to identify small molecule agonists of the peroxisome proliferator-activated receptor delta (PPARd) signaling pathway - cell viability counter screen (AID 743211); settings: PPARd-bla HEK293H viability, CellTiter-Glo luminescence, 17 h; activity change, negative = cytotoxicity: at 62.6 µM (top of the series) unless noted; also: potency is read from the fitted curve at half-maximal effect; nearly all actives have a fitted effect of over 55% in size
# Outline: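 Viability was measured as CellTiter-Glo luminescence (30 min, room temperature) in the same wells as the beta-lactamase readout. GeneBLAzer PPARd UAS-bla HEK293H cells received compound after 5 h plating and were incubated 17 h at 37 C.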
# [5] = molecular target: Bile acid receptor (Homo sapiens) (UniProt Q96RI1); assay: qHTS assay to identify small molecule antagonists of the farnesoid-X-receptor (FXR) signaling pathway (AID 743217; active = well fitted inhibition curve with a large enough effect in the signal ratio in the repeat runs, not every such curve was filed as active; inconclusive = weak or mixed curves, or effect the other way; inactive = no such curve, though single readings can be large or run the other way; the % refers to the signal ratio; also: potency is read from the fitted curve at half-maximal effect; as to activity change, negative = inhibition: % is scaled to controls: 0 for no effect and ±100 for the full control effect); settings: HEK293T FXR-UAS-bla, beta-lactamase ratio, CDCA-stimulated, 16 h; activity change, negative = inhibition: at 62.6 µM (top of the series) unless noted
# UniProt Q96RI1, sequence (Q96RI1 whole entry, looked up): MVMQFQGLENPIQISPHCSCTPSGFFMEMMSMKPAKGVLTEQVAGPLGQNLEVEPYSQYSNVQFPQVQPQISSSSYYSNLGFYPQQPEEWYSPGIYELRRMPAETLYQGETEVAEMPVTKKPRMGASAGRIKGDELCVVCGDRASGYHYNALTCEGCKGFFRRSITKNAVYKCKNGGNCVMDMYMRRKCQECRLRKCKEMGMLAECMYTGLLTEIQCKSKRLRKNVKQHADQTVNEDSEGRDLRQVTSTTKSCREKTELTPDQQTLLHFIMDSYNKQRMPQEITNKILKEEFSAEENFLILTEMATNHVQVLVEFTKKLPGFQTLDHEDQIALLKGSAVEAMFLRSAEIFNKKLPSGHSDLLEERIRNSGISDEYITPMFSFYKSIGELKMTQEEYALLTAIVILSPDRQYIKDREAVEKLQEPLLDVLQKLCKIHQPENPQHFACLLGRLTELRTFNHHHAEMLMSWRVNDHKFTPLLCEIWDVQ
# Outline: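 Beta-lactamase reporter under UAS control in HEK 293T cells; compound exposure 16 h at 37 °C in the presence of chenodeoxycholic acid (50 uM final); signal from B/G FRET substrate after 2 h at room temperature.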
# [6] = molecular target: Bile acid receptor (Homo sapiens) (UniProt Q96RI1); assay: qHTS assay to identify small molecule agonists of the farnesoid-X-receptor (FXR) signaling pathway (AID 743220; active = well fitted activation curve with a large enough effect in the signal ratio in the repeat runs, not every such curve was filed as active; inconclusive = weak or mixed curves, or effect the other way; the % refers to the signal ratio; also: potency is read from the fitted curve at half-maximal effect); settings: HEK293T FXR-UAS-bla, beta-lactamase FRET ratio, 16 h; activation: at 62.6 µM (top of the series) unless noted
# Outline: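 Beta-lactamase reporter under UAS control in GeneBLAzer FXR HEK 293T cells (5000/well) measured with LiveBLAzer FRET substrate after 2 h at room temperature. Compound exposure lasted 16 h at 37C.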
# [7] = molecular target: Vitamin D3 receptor (Homo sapiens) (UniProt P11473); assay: qHTS assay to identify small molecule agonists of the vitamin D receptor (VDR) signaling pathway (AID 743222; calls by dose curve; also: potency is read from the fitted curve at half-maximal effect); settings: HEK293T VDR-UAS-bla, beta-lactamase FRET ratio, 16 h; activation: at 63.5 µM (top of the series) unless noted
# UniProt P11473, sequence (P11473 whole entry, looked up): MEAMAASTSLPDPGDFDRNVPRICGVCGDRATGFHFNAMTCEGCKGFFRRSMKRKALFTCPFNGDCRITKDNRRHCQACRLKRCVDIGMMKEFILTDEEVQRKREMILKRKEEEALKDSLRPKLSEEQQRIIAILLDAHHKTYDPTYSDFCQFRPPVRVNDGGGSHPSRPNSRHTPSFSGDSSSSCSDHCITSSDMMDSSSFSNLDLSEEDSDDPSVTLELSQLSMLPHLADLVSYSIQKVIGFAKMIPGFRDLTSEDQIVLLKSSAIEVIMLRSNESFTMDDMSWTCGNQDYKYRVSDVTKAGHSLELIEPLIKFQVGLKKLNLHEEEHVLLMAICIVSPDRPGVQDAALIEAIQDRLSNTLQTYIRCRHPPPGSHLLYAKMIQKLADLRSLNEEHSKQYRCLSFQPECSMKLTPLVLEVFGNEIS
# Outline: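 Agonist activity measured in VDR-bla reporter cells. Exposure 16 h, 37C, 5% CO2; detection by B/G FRET substrate, 2 h RT.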
# [8] = molecular target: Vitamin D3 receptor (Homo sapiens) (UniProt P11473); assay: qHTS assay to identify small molecule antagonists of the vitamin D receptor (VDR) signaling pathway (AID 743223; active = well fitted inhibition curve with a large enough effect in the signal ratio in the repeat runs, not every such curve was filed as active; inconclusive = weak or mixed curves, or effect the other way; inactive = no such curve, though single readings can be large or run the other way; the % refers to the signal ratio; also: potency is read from the fitted curve at half-maximal effect; as to activity change, negative = inhibition: % is scaled to controls: 0 for no effect and ±100 for the full control effect); settings: VDR-UAS-bla HEK293T, beta-lactamase FRET ratio, 16 h; activity change, negative = inhibition: at 61 µM (top of the series) unless noted
# Outline: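 Antagonist mode: compound added to VDR-bla cells alongside agonist 1alpha,25-dihydroxyvitamin D3 (3 nM final), incubation 16 h at 37C. Read-out is LiveBLAzer FRET fluorescence, 2 h at room temperature.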
# [9] = qHTS assay to identify small molecule agonists of the vitamin D receptor (VDR) signaling pathway - cell viability counter screen (AID 743224); settings: VDR-bla HEK293T viability, CellTiter-Glo luminescence, 16 h; activity change, negative = cytotoxicity: at 62.6 µM (top of the series); also: nearly all actives have a fitted effect of over 50% in size; also: potency is read from the fitted curve at half-maximal effect
# Outline: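 VDR-bla cell line, quantitative HTS format; 16 h compound incubation (37C, 5% CO2); ATP-based CellTiter-Glo luminescence measured in the reporter assay wells.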
# [10] = qHTS assay for small molecule agonists of the antioxidant response element (ARE) signaling pathway - cell viability counter screen (AID 743203; calls by dose curve; also: nearly all actives have a fitted effect of over 55% in size; also: potency is read from the fitted curve at half-maximal effect); settings: ARE-bla HepG2 viability, CellTiter-Glo luminescence, 16 h; viability change, negative = cytotoxic: at 73.3 µM (top of the series)
# Outline: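 Cells (ARE-bla HepG2, 2,000/well) receive DMSO-dissolved compounds after a 5 hrs rest. Plates incubate 16 hrs at 37C/5% CO2. CellTiter-Glo luminescence is then recorded after 30 min at room temperature.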
# [11] = molecular target: Peroxisome proliferator-activated receptor delta (Homo sapiens) (UniProt Q03181); assay: qHTS assay to identify small molecule antagonists of the peroxisome proliferator-activated receptor delta (PPARd) signaling pathway (AID 743215; active = well fitted inhibition curve with a large enough effect in the signal ratio in the repeat runs, not every such curve was filed as active; inconclusive = weak or mixed curves, or effect the other way; inactive = no such curve, though single readings can be large or run the other way; the % refers to the signal ratio;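 also: cells stimulated with agonist L165041 at 300 nM final during compound exposure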; also: potency is read from the fitted curve at half-maximal effect); settings: HEK293H PPARd-UAS-bla, beta-lactamase FRET ratio, antagonist, 17 h; ratio activity, negative = inhibition: at 62 µM (top of the series) unless noted
# UniProt Q03181, sequence (Q03181 whole entry, looked up): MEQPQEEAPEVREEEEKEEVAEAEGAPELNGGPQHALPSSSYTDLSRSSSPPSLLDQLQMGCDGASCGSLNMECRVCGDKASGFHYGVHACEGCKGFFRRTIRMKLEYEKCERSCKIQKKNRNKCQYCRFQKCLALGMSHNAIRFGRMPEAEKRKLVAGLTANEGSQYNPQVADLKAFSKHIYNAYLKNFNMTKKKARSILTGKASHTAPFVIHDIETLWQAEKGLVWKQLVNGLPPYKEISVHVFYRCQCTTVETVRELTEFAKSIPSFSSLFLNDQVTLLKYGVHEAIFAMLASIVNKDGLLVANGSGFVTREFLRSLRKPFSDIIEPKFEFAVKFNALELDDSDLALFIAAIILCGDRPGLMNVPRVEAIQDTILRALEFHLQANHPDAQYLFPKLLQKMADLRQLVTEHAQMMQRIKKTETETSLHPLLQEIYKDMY
# Outline: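 Antagonist-mode beta-lactamase reporter screen: HEK293H cells with UAS-bla under PPARd control, stimulated by 300 nM L165041 (final) alongside test compound for 17 h at 37 C, then FRET fluorescence after 2 h substrate incubation.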
# [12] = qHTS assay to identify small molecule agonists of the farnesoid-X-receptor (FXR) signaling pathway - cell viability counter screen (AID 743218); settings: FXR-bla HEK293T viability, CellTiter-Glo luminescence, 16 h; viability change, negative = cytotoxic: at 62.6 µM (top of the series) unless noted; also: nearly all actives have a fitted effect of over 45% in size; also: potency is read from the fitted curve at half-maximal effect
# Outline: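 In GeneBLAzer FXR-UAS-bla HEK 293T cells, compounds act for 16 h at 37 C. Cell viability is then scored in the reporter wells by CellTiter-Glo, 30 min at RT, luminescence.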
# [13] = qHTS assay to identify small molecule antagonists of the peroxisome proliferator-activated receptor gamma (PPARg) signaling pathway - cell viability counter screen (AID 743194); settings: PPARg-bla HEK293H viability, CellTiter-Glo luminescence, 17 h, co-treated with 50 nM rosiglitazone; activity change, negative = cytotoxicity: at 62.6 µM (top of the series) unless noted; also: % is scaled to controls: 0 for no effect and ±100 for the full control effect; nearly all actives have a fitted effect of over 55% in size
# Outline: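 Viability was measured as CellTiter-Glo luminescence in GeneBLAzer PPARg UAS-bla HEK293H cells. These cells had been exposed 17 h at 37 C to compounds together with rosiglitazone at 50 nM final, with the beta-lactamase readout taken in the same wells.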
# [14] = qHTS assay for small molecule activators of the heat shock response signaling pathway - cell viability counter screen (AID 743209); settings: HSE-bla HeLa viability, CellTiter-Glo luminescence, 5 h; activity change, negative = cytotoxicity: at 62.6 µM (top of the series) unless noted; also: potency is read from the fitted curve at half-maximal effect; nearly all actives have a fitted effect of over 50% in size
# Outline: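 Quantitative HTS format, Tox21 10K library. HeLa cells carrying an HSE-driven beta-lactamase reporter were treated 5 h at 37 C, then assessed for viability by CellTiter-Glo luminescence.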
# [15] = qHTS assay to identify small molecule antagonists of the peroxisome proliferator-activated receptor delta (PPARd) signaling pathway - cell viability counter screen (AID 743213); settings: PPARd-bla HEK293H viability, CellTiter-Glo luminescence, 17 h; viability change, negative = cytotoxic: at 62 µM (top of the series) unless noted; also: potency is read from the fitted curve at half-maximal effect; nearly all actives have a fitted effect of over 50% in size
# Outline: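 PPARd-bla HEK293H cells were treated with compounds plus agonist L165041 (300 nM final) for 17 h at 37 C. Viability was then read in the same wells by CellTiter-Glo luminescence after 30 min at room temperature.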
# [16] = qHTS assay to identify small molecule antagonists of the farnesoid-X-receptor (FXR) signaling pathway - cell viability counter screen (AID 743221; active = well fitted cell-killing curve with a large enough effect in the repeat runs, not every such curve was filed as active; inconclusive = weak or mixed curves, or effect the other way; inactive = no such curve, though single readings can be large or run the other way; also: potency is read from the fitted curve at half-maximal effect; nearly all actives have a fitted effect of over 50% in size); settings: FXR-bla HEK293T viability, CellTiter-Glo luminescence, 16 h; activity change, negative = cytotoxicity: at 62.6 µM (top of the series) unless noted
# Outline: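 Cytotoxicity counter screen run in the FXR-bla reporter wells: HEK 293T cells exposed to compound with 50 uM (final) chenodeoxycholic acid for 16 h, 37 C, then viability measured by CellTiter-Glo luminescence after 30 min, room temperature.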
# Tags tell the direction and shape of the fitted curve or compound fluorescence and quenching.
smiles,measurement,setting,value
COc1cccc(OC)c1C(=O)N[C@@H]1C(=O)N2[C@@H]1SC(C)(C)[C@@H]2C(=O)O,"ratio activity, negative = inhibition",[1],inconclusive: -0.606%
same,Potency,[2],inconclusive
Cc1ccc(O)c(-n2nc3ccccc3n2)c1,"ratio activity, negative = inhibition",[1],inconclusive: -12.1%
same,Potency,[2],active: 60.6 µM
same,activation,[2],inconclusive: 29.2% and inconclusive: 26.5%
same,Potency,[3],inconclusive [activator]
same,Potency,[4],"inconclusive [cytotoxic, single point]"
same,"activity change, negative = inhibition",[5],inconclusive: -16.8%
same,Potency,[6],"inconclusive [rising, full curve, poor fit]"
same,Potency,[7],inconclusive
same,Potency,[8],inactive
same,Potency,[9],"inconclusive [cytotoxic, single point] and inactive"
COC(=O)/C=C\C(=O)O,Potency,[1],inactive
same,Potency,[2],active: 27.3 µM
same,Potency,[10],inactive
same,Potency,[11],inactive
same,Potency,[12],inactive
CC1=CC(O)CC(C)(C)C1 (centres undefined),"ratio activity, negative = inhibition",[1],inconclusive: 2.61%
same,Potency,[13],inactive
same,Potency,[12],"inconclusive [rising, partial curve, poor fit]"
same,Potency,[9],inactive
O=c1[nH]sc2cc(Cl)ccc12,"ratio activity, negative = inhibition",[1],inconclusive: -45.6%
same,Potency,[2],"inconclusive [falling, full curve, poor fit]"
same,Potency,[10],inactive
same,Potency,[14],"inconclusive [cytotoxic, single point]"
same,Potency,[3],inconclusive
same,Potency,[4],active: 26.6 µM
same,Potency,[15],active: 11.9 µM
same,Potency,[11],"inconclusive [cytotoxic, single point]"
same,Potency,[5],inconclusive
same,Potency,[12],"inconclusive [cytotoxic, partial curve, poor fit]"
same,Potency,[6],inactive
same,Potency,[16],"inconclusive [falling, single point]"
same,Potency,[7],"inconclusive [rising, single point]"
same,Potency,[8],inconclusive
O=C(Nc1cccc2c(=O)cc(-c3nn[nH]n3)oc12)c1ccc(OCCCCc2ccccc2)cc1,Potency,[1],"inconclusive [rising, partial curve, poor fit]"
same,Potency,[2],inconclusive
same,Potency,[10],active: 29.8 µM
same,Potency,[4],"inconclusive [cytotoxic, partial curve, poor fit]"
same,Potency,[15],"inconclusive [cytotoxic, partial curve]"
same,Potency,[12],"inconclusive [cytotoxic, partial curve]"
same,Potency,[7],"inconclusive [rising, partial curve, poor fit]"
same,"activity change, negative = inhibition",[8],inconclusive: 0.0445%
same,Potency,[9],"inconclusive [rising, single point]"
